For 19 molecules, enrichment score results are on record in the supplement of paper PMC10369915.

The other results are listed elsewhere or left out. Rule as the data show it: active = 3.2 or more and inactive = the rest. Most of these values are background signal.
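Also: displayed peptides selected on beads carrying the immobilized SH2 domain, with library peptides lacking any tyrosine serving as negative controls.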

The target in one assay is SHP2 C-SH2 domain E139D. Briefly: enrichment score (SH2-bound / input frequency) (ratio); bacterial display of known human phosphotyrosine sites (pTyr-Var adds point mutants) read by sequencing; higher = stronger binding; tyrosines were phosphorylated by kinases first. As to conditions: peptide library: pTyr-Var.
Regarding LADMNYVHCDL [EPHB2_Y742_R745C], the enrichment score was inactive: 0.97.

In the case of RTMPDYTSFNT [EPHB2_Y912_I909M], the enrichment score was inactive: 1.06.

In the case of AVRVFYRKCPR [EPHB2_Y194], the enrichment score was inactive: 0.26.

Turning to TAALWYIYSHT [ENG_Y612], the enrichment score was inactive: 1.62.

For the molecule LAEMNYVHQDL [EPHB1_Y740_R743Q], the enrichment score is inactive: 0.619.

For the molecule LTVVIYVLVGR [EPHA3_Y561_I564V], the enrichment score was inactive: 0.622.

In the case of SLDLSYYTTSS [EMD_Y181_P183T], the enrichment score was inactive: 1.03.

On to AIIEEYLHLND [EIF4G1_Y1253], for which the enrichment score was inactive: 0.948.

Turning to FMGVEYSSCDT [EPHA3_Y937_T933M], the enrichment score was inactive: 0.782.

VNNTVYGIDAM [EIF3J_Y143_A141T]: the enrichment score is inactive: 0.697.

Consider LTTEAYEWEPC [ELMOD3_Y61_R66C], for which the enrichment score is inactive: 0.881.

Take AIIEEYLHLSD [EIF4G1_Y1253_N1257S]: the enrichment score is inactive: 0.935.

Regarding GVPLGYPIKAS [ELN_Y206_P211S], the enrichment score is inactive: 0.883.

Consider FAAAGYGSLEA [EPHA10_Y959], for which the enrichment score is inactive: 0.692.

For the molecule ERDFTYDELLN [EIF2S2_Y176_E177D_YF], the enrichment score is inactive: 0.682.

On to FEPDAYDDLDQ [ELP5_Y302_YF], for which the enrichment score was inactive: 0.463.

In the case of EKLQQYIAPGM [EPHB3_Y600], the enrichment score is inactive: 1.07.

YEPDAYYDLDQ [ELP5_Y302_D303Y]: the enrichment score was inactive: 0.769.

Consider LDLSFYTTSSS [EMD_Y182_P183T_YF], for which the enrichment score is inactive: 1.24.

The target of another assay is SHP2 C-SH2 domain wild-type. The description is as above. To be noted: peptide library: pTyr-Var.
Turning to LADMNYVHCDL [EPHB2_Y742_R745C], the enrichment score was inactive: 1.23.

As to RTMPDYTSFNT [EPHB2_Y912_I909M], the enrichment score is inactive: 0.741.

On to AVRVFYRKCPR [EPHB2_Y194], for which the enrichment score is inactive: 0.242.

For TAALWYIYSHT [ENG_Y612], the enrichment score was inactive: 1.57.

In the case of LAEMNYVHQDL [EPHB1_Y740_R743Q], the enrichment score is inactive: 0.584.

LTVVIYVLVGR [EPHA3_Y561_I564V]: the enrichment score was inactive: 0.584.

Regarding SLDLSYYTTSS [EMD_Y181_P183T], the enrichment score is inactive: 0.917.

AIIEEYLHLND [EIF4G1_Y1253]: the enrichment score is inactive: 0.833.

On to FMGVEYSSCDT [EPHA3_Y937_T933M], for which the enrichment score was inactive: 1.08.

Turning to VNNTVYGIDAM [EIF3J_Y143_A141T], the enrichment score was inactive: 0.665.

Turning to LTTEAYEWEPC [ELMOD3_Y61_R66C], the enrichment score was inactive: 1.07.

With AIIEEYLHLSD [EIF4G1_Y1253_N1257S], the enrichment score is inactive: 0.973.

On to GVPLGYPIKAS [ELN_Y206_P211S], for which the enrichment score is inactive: 0.896.

For the molecule FAAAGYGSLEA [EPHA10_Y959], the enrichment score is inactive: 0.695.

On to ERDFTYDELLN [EIF2S2_Y176_E177D_YF], for which the enrichment score was inactive: 0.685.

For the molecule FEPDAYDDLDQ [ELP5_Y302_YF], the enrichment score is inactive: 0.361.

As for EKLQQYIAPGM [EPHB3_Y600], the enrichment score is inactive: 1.05.

For YEPDAYYDLDQ [ELP5_Y302_D303Y], the enrichment score is inactive: 0.862.

For LDLSFYTTSSS [EMD_Y182_P183T_YF], the enrichment score is inactive: 1.36.

Another assay addresses SHP2 N-SH2 domain L43F. The assay is described as above. To be noted: peptide library: pTyr-Var.
As for LADMNYVHCDL [EPHB2_Y742_R745C], the enrichment score was inactive: 1.11.

As to RTMPDYTSFNT [EPHB2_Y912_I909M], the enrichment score is inactive: 0.515.

On to AVRVFYRKCPR [EPHB2_Y194], for which the enrichment score was inactive: 0.291.

For TAALWYIYSHT [ENG_Y612], the enrichment score was inactive: 2.3.

As to LAEMNYVHQDL [EPHB1_Y740_R743Q], the enrichment score was inactive: 0.755.

As for LTVVIYVLVGR [EPHA3_Y561_I564V], the enrichment score is inactive: 0.287.

Turning to SLDLSYYTTSS [EMD_Y181_P183T], the enrichment score was inactive: 0.894.

Consider AIIEEYLHLND [EIF4G1_Y1253], for which the enrichment score was inactive: 0.88.

Turning to FMGVEYSSCDT [EPHA3_Y937_T933M], the enrichment score was inactive: 1.01.

Turning to VNNTVYGIDAM [EIF3J_Y143_A141T], the enrichment score was inactive: 0.569.

Turning to LTTEAYEWEPC [ELMOD3_Y61_R66C], the enrichment score was inactive: 0.857.

In the case of AIIEEYLHLSD [EIF4G1_Y1253_N1257S], the enrichment score was inactive: 1.02.

Consider GVPLGYPIKAS [ELN_Y206_P211S], for which the enrichment score was inactive: 0.868.

As to FAAAGYGSLEA [EPHA10_Y959], the enrichment score was inactive: 0.808.

With ERDFTYDELLN [EIF2S2_Y176_E177D_YF], the enrichment score is inactive: 0.637.

As to FEPDAYDDLDQ [ELP5_Y302_YF], the enrichment score is inactive: 0.41.

Turning to EKLQQYIAPGM [EPHB3_Y600], the enrichment score was inactive: 0.924.

For YEPDAYYDLDQ [ELP5_Y302_D303Y], the enrichment score was inactive: 0.706.

In the case of LDLSFYTTSSS [EMD_Y182_P183T_YF], the enrichment score was inactive: 1.5.

The target in a further assay is SHP2 N-SH2 domain T42A. Described as above. To be noted: peptide library: pTyr-Var.
As to LADMNYVHCDL [EPHB2_Y742_R745C], the enrichment score was inactive: 0.837.

For RTMPDYTSFNT [EPHB2_Y912_I909M], the enrichment score is inactive: 0.657.

With AVRVFYRKCPR [EPHB2_Y194], the enrichment score is inactive: 0.204.

For TAALWYIYSHT [ENG_Y612], the enrichment score is inactive: 1.27.

For LAEMNYVHQDL [EPHB1_Y740_R743Q], the enrichment score was inactive: 0.738.

As for LTVVIYVLVGR [EPHA3_Y561_I564V], the enrichment score is inactive: 0.512.

Consider SLDLSYYTTSS [EMD_Y181_P183T], for which the enrichment score is inactive: 0.848.

As to AIIEEYLHLND [EIF4G1_Y1253], the enrichment score is inactive: 0.944.

As to FMGVEYSSCDT [EPHA3_Y937_T933M], the enrichment score was inactive: 2.2.

For VNNTVYGIDAM [EIF3J_Y143_A141T], the enrichment score was inactive: 0.475.

Turning to LTTEAYEWEPC [ELMOD3_Y61_R66C], the enrichment score was inactive: 0.421.

AIIEEYLHLSD [EIF4G1_Y1253_N1257S]: the enrichment score is inactive: 0.984.

Take GVPLGYPIKAS [ELN_Y206_P211S]: the enrichment score was inactive: 0.789.

Turning to FAAAGYGSLEA [EPHA10_Y959], the enrichment score was inactive: 0.682.

As to ERDFTYDELLN [EIF2S2_Y176_E177D_YF], the enrichment score is inactive: 0.627.

As for FEPDAYDDLDQ [ELP5_Y302_YF], the enrichment score is inactive: 0.405.

On to EKLQQYIAPGM [EPHB3_Y600], for which the enrichment score was inactive: 0.875.

Take YEPDAYYDLDQ [ELP5_Y302_D303Y]: the enrichment score was inactive: 0.626.

Regarding LDLSFYTTSSS [EMD_Y182_P183T_YF], the enrichment score was inactive: 1.12.

In the next assay the target is SHP2 N-SH2 domain T52S. The assay is described as above. To be noted: peptide library: pTyr-Var.
Regarding LADMNYVHCDL [EPHB2_Y742_R745C], the enrichment score was inactive: 1.16.

RTMPDYTSFNT [EPHB2_Y912_I909M]: the enrichment score was inactive: 0.662.

Regarding AVRVFYRKCPR [EPHB2_Y194], the enrichment score is inactive: 0.247.

Take TAALWYIYSHT [ENG_Y612]: the enrichment score is inactive: 1.7.

For the molecule LAEMNYVHQDL [EPHB1_Y740_R743Q], the enrichment score was inactive: 0.799.

Turning to LTVVIYVLVGR [EPHA3_Y561_I564V], the enrichment score is inactive: 0.608.

Turning to SLDLSYYTTSS [EMD_Y181_P183T], the enrichment score was inactive: 1.

For AIIEEYLHLND [EIF4G1_Y1253], the enrichment score was inactive: 0.898.

On to FMGVEYSSCDT [EPHA3_Y937_T933M], for which the enrichment score is inactive: 0.653.

Turning to VNNTVYGIDAM [EIF3J_Y143_A141T], the enrichment score is inactive: 0.613.

With LTTEAYEWEPC [ELMOD3_Y61_R66C], the enrichment score is inactive: 0.579.

AIIEEYLHLSD [EIF4G1_Y1253_N1257S]: the enrichment score was inactive: 1.02.

As to GVPLGYPIKAS [ELN_Y206_P211S], the enrichment score was inactive: 0.782.

On to FAAAGYGSLEA [EPHA10_Y959], for which the enrichment score was inactive: 0.675.

As for ERDFTYDELLN [EIF2S2_Y176_E177D_YF], the enrichment score is inactive: 0.667.

Turning to FEPDAYDDLDQ [ELP5_Y302_YF], the enrichment score is inactive: 0.406.

Turning to EKLQQYIAPGM [EPHB3_Y600], the enrichment score was inactive: 0.933.

On to YEPDAYYDLDQ [ELP5_Y302_D303Y], for which the enrichment score is inactive: 0.717.

For the molecule LDLSFYTTSSS [EMD_Y182_P183T_YF], the enrichment score is inactive: 1.04.

The next assay deals with SHP2 N-SH2 domain wild-type. The assay is described as above. As to conditions: peptide library: pTyr-Var.
As to LADMNYVHCDL [EPHB2_Y742_R745C], the enrichment score was inactive: 1.3.

On to RTMPDYTSFNT [EPHB2_Y912_I909M], for which the enrichment score is inactive: 0.968.

AVRVFYRKCPR [EPHB2_Y194]: the enrichment score is inactive: 0.255.

In the case of TAALWYIYSHT [ENG_Y612], the enrichment score is inactive: 1.56.

For LAEMNYVHQDL [EPHB1_Y740_R743Q], the enrichment score is inactive: 0.722.

Take LTVVIYVLVGR [EPHA3_Y561_I564V]: the enrichment score was inactive: 0.247.

With SLDLSYYTTSS [EMD_Y181_P183T], the enrichment score is inactive: 0.936.

As for AIIEEYLHLND [EIF4G1_Y1253], the enrichment score was inactive: 0.977.

As to FMGVEYSSCDT [EPHA3_Y937_T933M], the enrichment score was inactive: 1.12.

In the case of VNNTVYGIDAM [EIF3J_Y143_A141T], the enrichment score was inactive: 0.758.

Consider LTTEAYEWEPC [ELMOD3_Y61_R66C], for which the enrichment score was inactive: 0.915.

As to AIIEEYLHLSD [EIF4G1_Y1253_N1257S], the enrichment score was inactive: 1.

As for GVPLGYPIKAS [ELN_Y206_P211S], the enrichment score is inactive: 0.9.

Consider FAAAGYGSLEA [EPHA10_Y959], for which the enrichment score was inactive: 0.703.

For the molecule ERDFTYDELLN [EIF2S2_Y176_E177D_YF], the enrichment score is inactive: 0.85.

As to FEPDAYDDLDQ [ELP5_Y302_YF], the enrichment score was inactive: 0.643.

In the case of EKLQQYIAPGM [EPHB3_Y600], the enrichment score is inactive: 1.07.

On to YEPDAYYDLDQ [ELP5_Y302_D303Y], for which the enrichment score is inactive: 0.947.

As for LDLSFYTTSSS [EMD_Y182_P183T_YF], the enrichment score is inactive: 1.2.
